# In the supplement of paper PMC8728848:
# Some of the results follow.
# B1: Gal 8 (Homo sapiens), O00214_1 (protein)
# chain: MMLSLNNLQNIIYNPVIPFVGTIPDQLDPGTLIVIRGHVPSDADRFQVDLQNGSSMKPRADVAFHFNPRFKRAGCIVCNTLINEKWGREEITYDTPFKREKSFEIVIMVLKDKFQVAVNGKHTLLYGHRIGPEKIDTLGIYGKVNIHSIGFSFSSDLQSTQASSLELTEISRENVPKSGTPQLRLPFAARLNTPMGPGRTVVVKGEVNANAKSFNVDLLAGKSKDIALHLNPRLNIKAFVRNSFLQESWGEEERNITSFPFSPGMYFEMIIYCDVREFKVAVNGVHSLEYKHRFKELSSIDTLEINGDIHLLEVRSW
# Experiments:
# Assay in all cases: glycan array binding signal (z-score within array); higher = stronger binding
# Conditions in all cases: glycan notation: IUPAC condensed, linker removed
# [1] = molecular target: Gal3S(b1-4)GlcNAc6S
# How it was run: (§1)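 Columns mapping to the same glycan were averaged after glycan names were converted to IUPAC-condensed notation. The data come from 3228 arrays in the Consortium for Functional Glycomics database, limited to those with an available protein sequence. Binding is reported as a within-array Z-score averaged across arrays of one protein sequence and across linkers.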
# [2] = molecular target: Gal3S(b1-4)[Fuc(a1-3)]Glc
# How it was run: as §1
# [3] = molecular target: Gal3S(b1-4)[Fuc(a1-3)]Glc6S
# How it was run: as §1
# [4] = molecular target: Gal3S4S(b1-4)GlcNAc
# How it was run: as §1
# [5] = molecular target: Gal3S6S(b1-4)GlcNAc
# How it was run: as §1
# [6] = molecular target: Gal3S6S(b1-4)GlcNAc6S
# How it was run: as §1
# [7] = molecular target: Gal4S(b1-4)GlcNAc
# How it was run: as §1
# [8] = molecular target: Gal4S6S(b1-4)GlcNAc
# How it was run: as §1
# [9] = molecular target: Gal6P(b1-4)GlcNAc
# How it was run: as §1
# [10] = molecular target: Gal6S(b1-3)GlcNAc
# How it was run: as §1
# [11] = molecular target: Gal6S(b1-3)GlcNAc6S
# How it was run: as §1
# [12] = molecular target: Gal6S(b1-4)Glc
# How it was run: as §1
# [13] = molecular target: Gal6S(b1-4)Glc6S
# How it was run: as §1
# [14] = molecular target: Gal6S(b1-4)GlcNAc
# How it was run: as §1
# [15] = molecular target: Gal6S(b1-4)GlcNAc6S
# How it was run: as §1
# [16] = molecular target: GalNAc(a1-3)Gal
# How it was run: as §1
# [17] = molecular target: GalNAc(a1-3)GalNAc
# How it was run: as §1
# [18] = molecular target: GalNAc(a1-3)GalNAc(b1-3)Gal(a1-4)Gal(b1-4)Glc
# How it was run: as §1
# [19] = molecular target: GalNAc(a1-3)GalNAc(b1-3)Gal(a1-4)Gal(b1-4)GlcNAc
# How it was run: as §1
# [20] = molecular target: GalNAc(b1-3)Gal
# How it was run: as §1
# [21] = molecular target: GalNAc(b1-3)Gal(a1-4)Gal(b1-4)GlcNAc
# How it was run: as §1
# [22] = molecular target: GalNAc(b1-3)Gal(a1-4)Gal(b1-4)GlcNAc(b1-3)Gal(b1-4)Glc
# How it was run: as §1
# [23] = molecular target: GalNAc(b1-3)Gal(a1-6)Gal(b1-4)Glc
# How it was run: as §1
# [24] = molecular target: GalNAc(b1-3)GalNAc
# How it was run: as §1
# [25] = molecular target: GalNAc(b1-4)Gal(b1-4)Glc
# How it was run: as §1
# [26] = molecular target: GalNAc(b1-4)GlcNAc
# How it was run: as §1
# [27] = molecular target: GalNAc(b1-4)GlcNAc(b1-2)Man(a1-3)[GalNAc(b1-4)GlcNAc(b1-2)Man(a1-6)]Man(b1-4)GlcNAc(b1-4)GlcNAc
# How it was run: as §1
# [28] = molecular target: GalNAc(b1-4)GlcNAc6S
# How it was run: as §1
# [29] = molecular target: GalNAc(b1-6)GalNAc
# How it was run: as §1
# [30] = molecular target: GalNAc3S(b1-4)GlcNAc
# How it was run: as §1
# [31] = molecular target: GalNAc3S(b1-4)GlcNAc3S
# How it was run: as §1
# [32] = molecular target: GalNAc4S6S(b1-4)GlcNAc
# How it was run: as §1
# [33] = molecular target: GalNAc6S(b1-4)GlcNAc
# How it was run: as §1
# [34] = molecular target: Glc(a1-4)Glc
# How it was run: as §1
# [35] = molecular target: Glc(a1-4)Glc(a1-4)Glc(a1-4)Glc
# How it was run: as §1
# [36] = molecular target: Glc(a1-6)Glc(a1-6)Glc
# How it was run: as §1
# [37] = molecular target: Glc(a1-6)Glc(a1-6)Glc(a1-6)Glc
# How it was run: as §1
# [38] = molecular target: Glc(b1-4)Glc
# How it was run: as §1
# [39] = molecular target: Glc(b1-6)Glc
# How it was run: as §1
# [40] = molecular target: GlcA(b1-3)Gal
# How it was run: as §1
# [41] = molecular target: GlcA(b1-3)GlcNAc
# How it was run: as §1
# [42] = molecular target: GlcA(b1-6)Gal
# How it was run: as §1
# [43] = molecular target: GlcNAc(a1-3)Gal(b1-4)GlcNAc
# How it was run: as §1
# [44] = molecular target: GlcNAc(a1-4)Gal(b1-3)GlcNAc
# How it was run: as §1
# [45] = molecular target: GlcNAc(a1-4)Gal(b1-4)GalNAc
# How it was run: as §1
binder,measurement,setting,value
B1,glycan array binding signal (z-score),[1],-0.173
same,glycan array binding signal (z-score),[2],-0.224
same,glycan array binding signal (z-score),[3],-0.138
same,glycan array binding signal (z-score),[4],-0.119
same,glycan array binding signal (z-score),[5],-0.243
same,glycan array binding signal (z-score),[6],-0.201
same,glycan array binding signal (z-score),[7],-0.21
same,glycan array binding signal (z-score),[8],-0.24
same,glycan array binding signal (z-score),[9],-0.201
same,glycan array binding signal (z-score),[10],-0.234
same,glycan array binding signal (z-score),[11],-0.24
same,glycan array binding signal (z-score),[12],-0.019
same,glycan array binding signal (z-score),[13],-0.094
same,glycan array binding signal (z-score),[14],-0.172
same,glycan array binding signal (z-score),[15],-0.226
same,glycan array binding signal (z-score),[16],0.204
same,glycan array binding signal (z-score),[17],-0.221
same,glycan array binding signal (z-score),[18],0.604
same,glycan array binding signal (z-score),[19],0.738
same,glycan array binding signal (z-score),[20],-0.179
same,glycan array binding signal (z-score),[21],-0.21
same,glycan array binding signal (z-score),[22],1.41
same,glycan array binding signal (z-score),[23],-0.188
same,glycan array binding signal (z-score),[24],-0.176
same,glycan array binding signal (z-score),[25],-0.201
same,glycan array binding signal (z-score),[26],-0.171
same,glycan array binding signal (z-score),[27],-0.517
same,glycan array binding signal (z-score),[28],-0.223
same,glycan array binding signal (z-score),[29],-0.257
same,glycan array binding signal (z-score),[30],-0.209
same,glycan array binding signal (z-score),[31],-0.241
same,glycan array binding signal (z-score),[32],-0.248
same,glycan array binding signal (z-score),[33],-0.215
same,glycan array binding signal (z-score),[34],-0.214
same,glycan array binding signal (z-score),[35],-0.217
same,glycan array binding signal (z-score),[36],-0.22
same,glycan array binding signal (z-score),[37],-0.23
same,glycan array binding signal (z-score),[38],0.078
same,glycan array binding signal (z-score),[39],-0.234
same,glycan array binding signal (z-score),[40],-0.219
same,glycan array binding signal (z-score),[41],-0.286
same,glycan array binding signal (z-score),[42],-0.202
same,glycan array binding signal (z-score),[43],-0.107
same,glycan array binding signal (z-score),[44],-0.204
same,glycan array binding signal (z-score),[45],-0.169
